Measurements published in PubChem BioAssay AID624417 (National Center for Advancing Translational Sciences (NCATS), 2012).
In all, about 410,000 compounds went through this assay and about 6,400 (1.6%) were called active. The inconclusive results got no clear call from the source; some entries with a clear call stand among them for comparison. Calls follow the shape of the dose curve; as a rule, active = well fitted inhibition curve with a large enough effect; inconclusive = small, poorly fitted or top-dose-only effect; inactive = no such curve, though single readings can be large or run the other way. A potency beside an inconclusive call is a rough fit, not a confirmed value.

Biological target: Glucagon-like peptide 1 receptor (Homo sapiens) (UniProt P43220)
Chain of UniProt P43220 (P43220 whole entry, looked up): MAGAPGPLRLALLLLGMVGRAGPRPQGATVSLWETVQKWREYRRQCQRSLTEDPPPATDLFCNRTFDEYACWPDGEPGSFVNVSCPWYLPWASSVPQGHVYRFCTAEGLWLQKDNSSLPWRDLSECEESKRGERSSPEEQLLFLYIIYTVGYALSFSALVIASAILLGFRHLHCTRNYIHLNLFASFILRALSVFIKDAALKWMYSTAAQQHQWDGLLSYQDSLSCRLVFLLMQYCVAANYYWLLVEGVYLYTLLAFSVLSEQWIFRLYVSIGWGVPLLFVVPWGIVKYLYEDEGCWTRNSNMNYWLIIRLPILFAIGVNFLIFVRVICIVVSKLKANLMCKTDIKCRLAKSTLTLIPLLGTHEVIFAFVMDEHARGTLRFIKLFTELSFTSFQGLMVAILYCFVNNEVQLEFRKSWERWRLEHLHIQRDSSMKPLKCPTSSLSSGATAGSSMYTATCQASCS
Experiment: qHTS of GLP-1 Receptor Inverse Agonists (Inhibition Mode); also: nearly all actives have a fitted effect of over 55% in size
Settings: HEK293 GLP-1R CRE-luciferase, luminescence, 24 h, GLP-1R form is constitutively active; activity change, negative = inhibition: at 38.3 µM (top of the series) unless noted
Method in brief: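 Constitutively active GLP-1R drives a cAMP-responsive luciferase in stably transfected HEK293 cells; test compounds are added after overnight (12 h) attachment and left 24 hr, and signal loss in luminescence marks inhibition.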
% is scaled to controls: 0 for no effect and ±100 for the full control effect; potency is read from the fitted curve at half-maximal effect; tags tell the direction and shape of the fitted curve.

Activity change, negative = inhibition, inactive:
COCCn1c(=S)[nH]c2ccc(N(C)C)cc2c1=O 0%
Cc1ccc(SCC2(O)CCN(S(=O)(=O)c3ccc(Cl)cc3)CC2)cc1 0%
c1csc(C2CCCN2c2nc3nonc3nc2NC2CC2)n1 (stereo not given) -8.57% [at 7.66 µM]
CCn1c(SCc2ccccc2)nnc1-c1nonc1NC(C)=O -6.25%
O=C1NC2c3ccccc3CC2O1 (stereo not given) 4.66%

Potency, inconclusive:
CCN(C(=O)CSc1nc2ccccc2n1CC(=O)Nc1cccc(C#N)c1)c1ccccc1 11.2 µM [inhibitor, single point]
Cc1cc(NC(=O)CN2C(=O)C(C)(C)c3ccccc32)ccc1Br 28.2 µM [inhibitor, single point]
CCCCCCCNC(=O)C1(CC2CC(c3cccc(Br)c3)=NO2)CCNCC1 (stereo not given) 28.2 µM [inhibitor, single point]
CCC1=C(CC2NCCc3ccccc32)CC2c3cc(OC)c(OC)cc3CCN2C1 (stereo not given) 11.2 µM [inhibitor, partial curve, poor fit]
COc1ccc(C(CC(=O)Nc2ccc(F)c(Cl)c2)N2Cc3ccccc3C2=O)cc1OC (stereo not given) 28.2 µM [inhibitor, single point]
CCOC(=O)C1CCCN(C(=O)Cn2ncc3c([nH]c4ccccc43)c2=O)C1 (stereo not given) 11.2 µM [inhibitor, partial curve, poor fit]
Fc1ccc(CN2CCN(C(=S)NCCc3ccccc3)CC2)c(Cl)c1 7.08 µM [inhibitor, partial curve]
CN(C)C/C=C/C(=O)Nc1cccc(-c2c[nH]c3ncnc(Oc4ccc(NC(=O)CC(=O)Nc5ccc(F)cc5)cc4F)c23)c1 28.2 µM [inhibitor, single point]
Cc1c(NC(=O)c2ccc3c(c2)OCO3)cccc1-c1nc2ccccc2o1 11.2 µM [inhibitor, partial curve, poor fit]
Cc1cc(C)cc(NC(=O)CCCSc2nc3ccccc3[nH]2)c1 8.91 µM [inhibitor, partial curve]
Cc1[nH]n2c(=O)cc(-c3ccccc3Cl)nc2c1-c1ccccc1 2.82 µM [inhibitor, partial curve]
O=C(/C=C/c1ccccc1)NCCSCc1ccccc1 22.4 µM [inhibitor, single point]
O=C(CSc1nc2ncc(Cl)cc2[nH]1)c1c[nH]c2ccccc12 31.6 µM [inhibitor, single point]
Cc1nc2ccccc2c(=O)n1NC(=O)c1c(O)c2c(n(CC(C)C)c1=O)CCCC2 7.94 µM [inhibitor, partial curve, poor fit]
CN(C)C(=O)/C(C#N)=C\c1cc(Br)c(Sc2ccc(Cl)cc2)o1 4.47 µM [inhibitor, full curve, poor fit]
CC(/C=C/c1ccc(O)cc1)=NNc1ccccc1 7.94 µM [inhibitor, partial curve, poor fit]
O=C(CSCc1ccc([N+](=O)[O-])cc1)Nc1ccc(S(=O)(=O)N2CCCCCC2)cc1 11.2 µM [inhibitor, single point]
O=C(NCCCc1nc2ccccc2n1Cc1ccccc1Cl)C1CCCCC1 11.2 µM [inhibitor, single point]
CSC(=NC1CCCCC1)NS(=O)(=O)c1ccccc1 28.2 µM [inhibitor, single point]
O=C(Nc1ccc(N2CCOCC2)cc1)c1cnccn1 1.26 µM [inhibitor, full curve, poor fit]
O=C1SCCC1NS(=O)(=O)c1ccc([N+](=O)[O-])cc1 (stereo not given) 10 µM [inhibitor, partial curve, poor fit]
CC1(C)CC(=O)C=C(Nc2ccc(Cl)c(Br)c2)C1 28.2 µM [inhibitor, single point]
CC(C)(C)c1ccc(-c2nnc(SCCN3C(=O)c4ccccc4C3=O)o2)cc1 28.2 µM [inhibitor, single point]
CN(Cc1ccccc1)C1CCCN(C(=O)c2ccc(Cl)s2)C1 (stereo not given) 17.8 µM [inhibitor, partial curve, poor fit]
O=C(NC(c1ccc(F)cc1)c1ccc2ccccc2n1)C1CCN(CCOc2ccc(Cl)cc2Cl)CC1 (stereo not given) 6.31 µM [inhibitor, partial curve, poor fit]
CC(NCC(=O)NCC(=O)Nc1ccc(F)cc1)c1cccc(C(F)(F)F)c1 (stereo not given) 17.8 µM [inhibitor, partial curve, poor fit]
COc1cccc(/C=N/NC(=O)c2cc3c(OC)ccc(OC)c3[nH]2)c1O 0.794 µM [inhibitor, full curve, poor fit]
CN(C)c1ccc(N=Nc2ccccc2C(=O)OCC(=O)NCC2CCCCC2)cc1 10 µM [inhibitor, partial curve, poor fit]
O=C(/C=C/Nc1ccc(F)cc1Br)c1ccccc1 10 µM [inhibitor, partial curve, poor fit]
COc1cc(NC(=O)c2nnn(Cc3ccc(F)cc3)c2N)cc(OC)c1 6.31 µM [inhibitor, partial curve, poor fit]
Cc1sc2nc(CN3CCCC3)nc(N3CCN(S(=O)(=O)c4ccccc4)CC3)c2c1C 28.2 µM [inhibitor, single point]
CN1CCN(S(=O)(=O)c2cccc(C(=O)Nc3ccc(Br)cc3Br)c2)CC1 10 µM [inhibitor, partial curve, poor fit]
c1ccc(-c2nc3cccnc3nc2-c2ccccc2)cc1 28.2 µM [inhibitor, single point]

Potency, inactive:
CCN(CC)CCNC(=O)c1ccc(NC(C)=O)cc1

Potency, active:
CN1CCN(C2Cc3ccc(Cl)cc3Sc3ccc(F)cc32)CC1 (stereo not given) 8.91 µM
